What follows are compounds tested against Recombinant heterodimeric HCV NS3/NS4A protease (strain 1a) (Hepatitis C virus genotype 1a, UniProt P27958) (assay: Spectrophotometric assay for HCV serine protease inhibitory activity (chromogenic ester substrates)). Conditions: Table 3A; cells that print a number instead of a class symbol; read-out: Ki* Range.
Format: biochemical

Work on `C=CCNC(=O)C(=O)[C@H](CCCC)NC(=O)[C@@H]1[C@@H]2[C@H](CN1C(=O)[C@@H](NC(=O)NC1(C3OCCS3(=O)=O)CCCCC1)C(C)(C)C)C2(C)C` (some centres unmarked) [Compound 883-c] yielded a Ki of 3 nM.

Same assay, conditions: Table 3A; class symbols; read-out: Ki* Range

`C=C(F)CNC(=O)C(=O)[C@@H](CCCC)NC(=O)[C@@H]1[C@@H]2[C@H](CN1C(=O)[C@@H](NC(=O)NC1([C@H]3CCCS3(=O)=O)CCCCC1)C(C)(C)C)C2(C)C` [Compound 883-bi] and `C=C(F)CNC(=O)C(=O)[C@@H](CCCC)NC(=O)[C@@H]1[C@@H]2[C@H](CN1C(=O)[C@@H](NC(=O)NC1([C@@H]3CCCS3(=O)=O)CCCCC1)C(C)(C)C)C2(C)C` [Compound 883-bj] fall in the same range of Ki: 75 to 250 nM for the first, 75 to 250 nM for the second.

`C=C(F)CNC(=O)C(=O)[C@H](CCCC)NC(=O)[C@@H]1[C@@H]2[C@H](CN1C(=O)[C@@H](NC(=O)NC1([C@H]3CCCS3(=O)=O)CCCCC1)C(C)(C)C)C2(C)C` [Compound 883-bk] and `C=C(F)CNC(=O)C(=O)[C@H](CCCC)NC(=O)[C@@H]1[C@@H]2[C@H](CN1C(=O)[C@@H](NC(=O)NC1([C@@H]3CCCS3(=O)=O)CCCCC1)C(C)(C)C)C2(C)C` [Compound 883-bl] cannot be ordered by Ki: under 75 nM for the first, under 75 nM for the second.

`CCCNC(=O)C(=O)[C@H](CCC1CC1)NC(=O)[C@@H]1[C@@H]2[C@H](CN1C(=O)[C@@H](NC(=O)NC1([C@H]3CCCS3(=O)=O)CCCCC1)C1CCCCC1)C2(C)C` [Compound 883-bm] and `CCCNC(=O)C(=O)[C@H](CC1CC1)NC(=O)[C@@H]1[C@@H]2[C@H](CN1C(=O)[C@@H](NC(=O)NC1([C@H]3CCCS3(=O)=O)CCCCC1)C1CCCCC1)C2(C)C` [Compound 883-cc] cannot be ordered by Ki: under 75 nM for the first, under 75 nM for the second.

`CCCNC(=O)C(=O)[C@H](CCC1CC1)NC(=O)[C@@H]1[C@@H]2[C@H](CN1C(=O)[C@@H](NC(=O)NC1([C@@H]3CCCCS3(=O)=O)CCCCC1)C1(C)CCCCC1)C2(C)C` [Compound 883-bn] and `C#CCNC(=O)C(=O)[C@H](CCC)NC(=O)[C@@H]1[C@@H]2[C@H](CN1C(=O)[C@@H](NC(=O)NC1(C3CCCCS3(=O)=O)CCCCC1)C1(C)CCCCC1)C2(C)C` (some centres unmarked) [Compound 883-bp] cannot be ordered by Ki: under 75 nM for the first, under 75 nM for the second.

`CCCNC(=O)C(=O)[C@H](CC1CC1)NC(=O)[C@@H]1[C@@H]2[C@H](CN1C(=O)[C@@H](NC(=O)NC1(CS(=O)(=O)CCC(C)C)CCCCC1)C1(C)CCCCC1)C2(C)C` [Compound 883-bo] and `CCCNC(=O)C(=O)[C@H](CC1CC1)NC(=O)[C@@H]1[C@@H]2[C@H](CN1C(=O)[C@@H](NC(=O)NC1(CS(=O)(=O)C(C)(C)CC)CCCCC1)C1(C)CCCCC1)C2(C)C` [Compound 883-db] cannot be ordered by Ki: under 75 nM for the first, under 75 nM for the second.

`CCCNC(=O)C(=O)[C@H](CCC)NC(=O)[C@@H]1[C@@H]2[C@H](CN1C(=O)[C@@H](NC(=O)NC1(CS(=O)(=O)C3(C)CCOCC3)CCCCC1)C(C)(C)C)C2(C)C` [Compound 883-bq] and `CCCC[C@H](NC(=O)[C@@H]1[C@@H]2[C@H](CN1C(=O)[C@@H](NC(=O)NC1(CS(=O)(=O)C3(C)CCOCC3)CCCCC1)C(C)(C)C)C2(C)C)C(=O)C(=O)NCCC` [Compound 883-br] cannot be ordered by Ki: under 75 nM for the first, under 75 nM for the second.

`CCNC(=O)C(=O)[C@H](CCC1CC1)NC(=O)[C@@H]1[C@@H]2[C@H](CN1C(=O)[C@@H](NC(=O)NC1(CS(=O)(=O)C(C)(C)C)CCCCC1)C1(C)CCCCC1)C2(C)C` [Compound 883-bs] and `CCNC(=O)C(=O)[C@H](CCC1CC1)NC(=O)[C@@H]1[C@@H]2[C@H](CN1C(=O)[C@@H](NC(=O)NC1(CS(=O)(=O)C(C)(C)CC)CCCCC1)C1(C)CCCCC1)C2(C)C` [Compound 883-da] cannot be ordered by Ki: under 75 nM for the first, under 75 nM for the second.

`C=C(F)CNC(=O)C(=O)[C@H](CC1CC1)NC(=O)[C@@H]1[C@@H]2[C@H](CN1C(=O)[C@@H](NC(=O)NC1(CS(=O)(=O)C(C)(C)C)CCCCC1)C1(C)CCCCC1)C2(C)C` [Compound 883-bt] and `CNC(=O)C(=O)[C@H](CC1CC1)NC(=O)[C@@H]1[C@@H]2[C@H](CN1C(=O)[C@@H](NC(=O)NC1(CS(=O)(=O)C(C)(C)C)CCCCC1)C1(C)CCCCC1)C2(C)C` [Compound 883-ci] cannot be ordered by Ki: under 75 nM for the first, under 75 nM for the second.

`CNC(=O)C(=O)[C@H](CCC1CC1)NC(=O)[C@@H]1[C@@H]2[C@H](CN1C(=O)[C@@H](NC(=O)NC1(CS(=O)(=O)C(C)(C)C)CCCCC1)C1CCCCC1)C2(C)C` [Compound 883-bu] and `CC1([C@H](NC(=O)NC2(CS(=O)(=O)C(C)(C)C)CCCCC2)C(=O)N2C[C@H]3[C@@H]([C@H]2C(=O)N[C@@H](CCC2CC2)C(=O)C(=O)NCC2CC2)C3(C)C)CCCCC1` [Compound 883-cs] cannot be ordered by Ki: under 75 nM for the first, under 75 nM for the second.

`CNC(=O)C(=O)[C@H](CCC(F)(F)F)NC(=O)[C@@H]1[C@@H]2[C@H](CN1C(=O)[C@@H](NC(=O)NC1(CS(=O)(=O)C(C)(C)C)CCCCC1)C(C)(C)C)C2(C)C` [Compound 883-bv] and `CCNC(=O)C(=O)[C@H](CCC(F)(F)F)NC(=O)[C@@H]1[C@@H]2[C@H](CN1C(=O)[C@@H](NC(=O)NC1(CS(=O)(=O)C(C)(C)C)CCCCC1)C(C)(C)C)C2(C)C` [Compound 883-cb] cannot be ordered by Ki: under 75 nM for the first, under 75 nM for the second.

`CC(C)(C)[C@H](NC(=O)NC1(CS(=O)(=O)C(C)(C)C)CCCCC1)C(=O)N1C[C@H]2[C@@H]([C@H]1C(=O)N[C@@H](CCCF)C(=O)C(=O)NC1CC1)C2(C)C` [Compound 883-bw] and `CNC(=O)C(=O)[C@H](CC1CC1)NC(=O)[C@@H]1[C@@H]2[C@H](CN1C(=O)[C@@H](NC(=O)NC1(CS(=O)(=O)C(C)(C)C)CCCCC1)C(C)(C)C)C2(C)C` [Compound 883-ch] cannot be ordered by Ki: under 75 nM for the first, under 75 nM for the second.

`CCC(C)(C)S(=O)(=O)CC1(NC(=O)N[C@H](C(=O)N2C[C@H]3[C@@H]([C@H]2C(=O)N[C@@H](CCC2CC2)C(=O)C(=O)NC2CC2)C3(C)C)C2(C)CCCCC2)CCCCC1` [Compound 883-bx] and `CCCC[C@H](NC(=O)[C@@H]1[C@@H]2[C@H](CN1C(=O)[C@@H](NC(=O)NC1(CS(=O)(=O)C(C)(C)CC)CCCCC1)C1(C)CCCCC1)C2(C)C)C(=O)C(=O)NC1CC1` [Compound 883-by] cannot be ordered by Ki: under 75 nM for the first, under 75 nM for the second.

`CCCC[C@H](NC(=O)[C@@H]1[C@@H]2[C@H](CN1C(=O)[C@@H](NC(=O)NC1(CS(=O)(=O)C(C)(C)CC)CCCCC1)C1(C)CCCCC1)C2(C)C)C(=O)C(=O)NCC` [Compound 883-bz] and `CCCC[C@H](NC(=O)[C@@H]1[C@@H]2[C@H](CN1C(=O)[C@@H](NC(=O)NC1(CS(=O)(=O)C(C)(C)CC)CCCCC1)C1(C)CCCCC1)C2(C)C)C(=O)C(=O)NCCC` [Compound 883-ca] cannot be ordered by Ki: under 75 nM for the first, under 75 nM for the second.

`CCCC[C@H](NC(=O)[C@@H]1[C@@H]2[C@H](CN1C(=O)[C@@H](NC(=O)NC1([C@H]3CCCS3(=O)=O)CCCCC1)C1CCCCC1)C2(C)C)C(=O)C(=O)NCCC` [Compound 883-cd] and `CCCNC(=O)C(=O)[C@H](CC1CC1)NC(=O)[C@@H]1[C@@H]2[C@H](CN1C(=O)[C@@H](NC(=O)NC1([C@H]3CCCCS3(=O)=O)CCCCC1)C(C)(C)C)C2(C)C` [Compound 883-ct] cannot be ordered by Ki: under 75 nM for the first, under 75 nM for the second.

`CC1([C@H](NC(=O)NC2(CS(=O)(=O)C(C)(C)C)CCCCC2)C(=O)N2C[C@H]3[C@@H]([C@H]2C(=O)N[C@@H](CC2CC2)C(=O)C(=O)NCc2cccs2)C3(C)C)CCCCC1` [Compound 883-ce] and `CCCC[C@H](NC(=O)[C@@H]1[C@@H]2[C@H](CN1C(=O)[C@@H](NC(=O)NC1(CS(=O)(=O)C(C)(C)C)CCCCC1)C1(C)CCCCC1)C2(C)C)C(=O)C(=O)NCc1cccs1` [Compound 883-cf] cannot be ordered by Ki: under 75 nM for the first, under 75 nM for the second.

`CCCC[C@H](NC(=O)[C@@H]1[C@@H]2[C@H](CN1C(=O)[C@@H](NC(=O)NC1(CS(=O)(=O)C3(C)CCOCC3)CCCCC1)C(C)(C)C)C2(C)C)C(=O)C(=O)NCC` [Compound 883-cg] and `CCCNC(=O)C(=O)[C@H](CC1CC1)NC(=O)[C@@H]1[C@@H]2[C@H](CN1C(=O)[C@@H](NC(=O)NC1(CS(=O)(=O)C3(C)CCOCC3)CCCCC1)C(C)(C)C)C2(C)C` [Compound 883-cv] cannot be ordered by Ki: under 75 nM for the first, under 75 nM for the second.

`CCCC[C@H](NC(=O)[C@@H]1[C@@H]2[C@H](CN1C(=O)[C@@H](NC(=O)NC1([C@H]3CCCS3(=O)=O)CCCCC1)C(C)(C)C)C2(C)C)C(=O)C(=O)NCC` [Compound 883-ck] and `CCCC[C@H](NC(=O)[C@@H]1[C@@H]2[C@H](CN1C(=O)[C@@H](NC(=O)NC1([C@@H]3CCCS3(=O)=O)CCCCC1)C(C)(C)C)C2(C)C)C(=O)C(=O)NCC` [Compound 883-cl] cannot be ordered by Ki: under 75 nM for the first, under 75 nM for the second.

`CCCC[C@H](NC(=O)[C@@H]1[C@@H]2[C@H](CN1C(=O)[C@@H](NC(=O)NC1(C3OCCCS3(=O)=O)CCCCC1)C(C)(C)C)C2(C)C)C(=O)C(=O)NCCC` (some centres unmarked) [Compound 883-cm] and `CCCC[C@H](NC(=O)[C@@H]1[C@@H]2[C@H](CN1C(=O)[C@@H](NC(=O)NC1(C3OCCCS3(=O)=O)CCCCC1)C(C)(C)C)C2(C)C)C(=O)C(=O)NCC1CC1` (some centres unmarked) [Compound 883-co] cannot be ordered by Ki: under 75 nM for the first, under 75 nM for the second.

`CCCNC(=O)C(=O)[C@H](CCCCF)NC(=O)[C@@H]1[C@@H]2[C@H](CN1C(=O)[C@@H](NC(=O)NC1(CS(=O)(=O)C(C)(C)C)CCCCC1)C1(C)CCCCC1)C2(C)C` [Compound 883-cu] and `CCCC[C@H](NC(=O)[C@@H]1[C@@H]2[C@H](CN1C(=O)[C@@H](NC(=O)NC1(C3OCCS3(=O)=O)CCCCC1)C1(C)CCCCC1)C2(C)C)C(=O)C(=O)NCCC` (some centres unmarked) [Compound 883-cz] cannot be ordered by Ki: under 75 nM for the first, under 75 nM for the second.

`CCCC[C@H](NC(=O)[C@@H]1[C@@H]2[C@H](CN1C(=O)[C@@H](NC(=O)NC1([C@H]3CCCS3(=O)=O)CCCCC1)C(C)(C)C)C2(Cl)Cl)C(=O)C(=O)NCC` [Compound 883-cw] and `CCCC[C@H](NC(=O)[C@@H]1[C@@H]2[C@H](CN1C(=O)[C@@H](NC(=O)NC1([C@@H]3CCCS3(=O)=O)CCCCC1)C(C)(C)C)C2(Cl)Cl)C(=O)C(=O)NCC` [Compound 883-cx] cannot be ordered by Ki: under 75 nM for the first, under 75 nM for the second.

`CCCNC(=O)C(=O)[C@H](CC1CC1)NC(=O)[C@@H]1[C@@H]2[C@H](CN1C(=O)[C@@H](NC(=O)NC1(C3OCCS3(=O)=O)CCCCC1)C1(C)CCCCC1)C2(C)C` (some centres unmarked) [Compound 883-cy] and `C=CCNC(=O)C(=O)[C@H](CCCC)NC(=O)[C@@H]1[C@@H]2[C@H](CN1C(=O)[C@@H](NC(=O)NC1(C3OCCS3(=O)=O)CCCCC1)C(C)(C)C)C2(C)C` (some centres unmarked) [Compound 883-d] cannot be ordered by Ki: under 75 nM for the first, under 75 nM for the second.

Compound `CCCC[C@H](NC(=O)[C@@H]1[C@@H]2[C@H](CN1C(=O)[C@@H](NC(=O)NC1(CS(=O)(=O)C3(C)CCOCC3)CCCCC1)C(C)(C)C)C2(Cl)Cl)C(=O)C(=O)NCCC` [Compound 883-dc] has a Ki of under 75 nM.
